Sequences with one replicate were seen in a single cluster, so their values are uncertain.
System: ATP
Test: switch fluorescence ratio, 500 uM ATP over buffer (Cy3 cluster intensity, sum of 5 cycles each) (fold (ratio)); higher = stronger signal-on switching upon ATP binding; sequences stand for … in TCGTCGGCAGCGTCAGATGTGTATAAGAGACAGTTTTTTTTTTTTTTTTTTTTTTTTT…TC
Settings: aptamer strand: ATP DNA aptamer (quencher-CACCTGGGGGAGTATTGCGGAGGAAGG + anchor), 100 nM annealed; ATP concentration: 500 uM; one replicate
Method in brief: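 Cy3-labelled switching-strand clusters on a modified Illumina MiSeq flow-cell were annealed to 100 nM quencher-labelled ATP aptamer, imaged in selection buffer, then imaged after 15 min with 500 uM ATP at 22 °C. Five buffer/ATP cycles ran, with NaOH stripping and re-annealing between them. The fluorescence ratio is summed target-cycle over summed buffer-cycle Cy3 intensity per cluster, averaged per switch-domain sequence. Clusters outside 100-1000 RFU were excluded.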
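Note: ATP exposure 15 min at 22 °C before imaging.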

| Sequence | switch fluorescence ratio |
| --- | --- |
| GCTACCGTAG | 1.2 |
| TTCTTTATGA | 0.968 |
| TTTGCTAAGT | 0.962 |
| CATCTGCCAG | 1.17 |
| GTGGACAGCG | 1.02 |
| AACGGGTGAT | 1.09 |
| AAAAAATAAT | 1.06 |
| TTGCAAGGGG | 0.988 |
| AAGTTGTCAC | 1.01 |
| GCCGAACCTT | 1.04 |
| TTAACGGT | 1 |
| CATGACGGAG | 1.07 |
| TTTACCCCCC | 1.3 |
| TAAGTCTCGT | 1 |
| TTGTGCGACA | 1 |
| CGCATCATTG | 1.05 |
| TGATCCGTA | 1.05 |
| TAGTGTTCT | 0.958 |
| TAGTAACTTT | 1.03 |
| AAGTCCTATT | 0.98 |
| CTTTTCCGCC | 2.68 |
| TTGGGAGTCG | 1.01 |
| TATTCCTTAG | 1.07 |

| Sequence | switch fluorescence ratio |
| --- | --- |
| ATACTTGTTG | 0.953 |
| GGCAGTGTTA | 0.938 |
| TGGGGAGGTG | 0.968 |
| CGTCTGAGGA | 0.978 |
| CGGTTGCAAA | 1.1 |
| AACTTGCCCC | 1.04 |
| CTCTAGAGAC | 2.32 |
| ACGTGGAATT | 0.982 |
| AACGTTCATC | 1.16 |
| GTATTACGAC | 1.09 |
| TTGAAAGCCA | 1.04 |
| CTAATTCCA | 0.964 |
| TGAGGCCTAT | 1.03 |
| AGTTAGACGT | 0.959 |
| GCTAATCCGC | 1.32 |
| CCACAATCGG | 1.31 |
| AGAGTTGAAA | 0.983 |
| TGAGAAAGGC | 1.18 |
| GATTGTATGC | 0.979 |
| CAGAAAGAAA | 1.04 |
| ACGAGTCACG | 1.1 |
| TCAATCAATA | 1.03 |
| ACGCGCCTTA | 0.99 |

| Sequence | switch fluorescence ratio |
| --- | --- |
| AGCTAATCCA | 0.993 |
| GAGGTCAGTT | 0.961 |
| TTCTGATATT | 1 |
| TCCAGCCTTA | 1.53 |
| AAAAATCCGG | 1.02 |
| AACTACGTTT | 0.992 |
| AACCGGGTAA | 1.04 |
| TGGAAGAAAA | 0.998 |
| AGAGGCGAA | 0.989 |
| ATTTAATTTA | 1 |
| AACTGCCTTC | 1.07 |
| CCATAGAGTC | 1.04 |
| TCTTAATTTA | 1.01 |
| TAACCTCGGT | 1 |
| ATCAGCAA | 3.72 |
| ATCGCGGTGG | 1.01 |
| GGTGGGGCG | 0.991 |
| CTGTGCACGG | 1.05 |
| GAGTTTGGGG | 0.982 |
| ATCTCCGGCT | 1.07 |
| TAGTTGGAG | 0.998 |
| GGACAATATG | 0.931 |
| GAGAGACGT | 0.973 |

| Sequence | switch fluorescence ratio |
| --- | --- |
| CAGGATATCG | 0.986 |
| CTCCGGTGCT | 3.88 |
| GGTGATATAC | 1.08 |
| ACTTGGGTCC | 0.999 |
| TTCGCATATC | 1.74 |
| TCGTGCGCAG | 1.12 |
| ATTTCGTCAT | 1.01 |
| CATTGCTTTC | 1.01 |
| TTGCGGTCTA | 1.03 |
| GCTTTAGCGT | 0.974 |
| CCACTAGCTA | 1.59 |
| ACTGCGGGCC | 0.986 |
| CTCTTGGAAC | 1 |
| AGCGCCTCGC | 1.01 |
| GCACCCCACA | 1.24 |
| GTGGTCGGG | 1.01 |
| AGTCGGGGCG | 0.924 |
| GCTGCGCGCT | 1.03 |
| GCCTTAAGGC | 1 |
| CGACAGTGAG | 1.03 |
| TTTCAGTTAG | 1.02 |
| GAAAAGAGCT | 0.982 |
| GACGGCAAA | 0.967 |

| Sequence | switch fluorescence ratio |
| --- | --- |
| GGTTACCTCG | 1.02 |
| GTAACCGGGA | 0.997 |
| CACTATCAGC | 1.07 |
| TTCTCGGAGT | 0.983 |
| CCGATTGGAC | 1.51 |
| CGGCTTATTT | 0.965 |
| AGTGATATCA | 1.02 |
| TCGCGGGCGG | 0.993 |
| CTCACTACGT | 1.05 |
| GCTTCATCAC | 1.16 |
| GCCGAGACGA | 1.08 |
| TAGTAGTAC | 1.19 |
| TTGAAATAAA | 1.03 |
| TAGACTAGGG | 1.01 |
| AATGCATACT | 1.14 |
| CATACACGGT | 1.06 |
| CATTGACCTA | 1.07 |
| ATTTCAACGA | 1.03 |
| TTTGGAGAGC | 1.12 |
| AAAAAAGTAA | 1.08 |
| TTGTCGGGAG | 1.05 |
| GAGAATAATT | 0.962 |
| ATCTGCCAGT | 0.952 |

| Sequence | switch fluorescence ratio |
| --- | --- |
| TGGGTGTTAT | 0.987 |
| TCCGAAGAGG | 1.2 |
| TATGACTGCA | 1.03 |
| GACTTATATG | 0.994 |
| CGATTGGAAT | 1.11 |
| AGAGCGTGTC | 1.06 |
| CCGTTCGTTT | 1.09 |
| TATTACTATG | 1.02 |
| CTCTTTCTT | 1.02 |
| GACTTACGGA | 1.49 |
| GGCGCACAGG | 1.38 |
| CTATAAATAT | 1.02 |
| TACATGGCCG | 1.2 |
| GGGTGTAACG | 0.972 |
| ACCGGCTGGT | 0.994 |
| GTGGGGGTAC | 1.01 |
| ACACTTACCG | 1.21 |
| TACAATTAT | 1.04 |
| TCGCCCTTAC | 3.74 |
| ATGGACCCTG | 0.978 |
| TTTTTGCTT | 0.975 |
| AGAGTACGAA | 1.03 |
| GTGCTAAGT | 0.951 |

| Sequence | switch fluorescence ratio |
| --- | --- |
| CGAGGTGGG | 1.03 |
| GATTTTGGGC | 0.993 |
| CAAAATTAGT | 1.01 |
| CGGTGCTTTA | 1.03 |
| AAGGGACCGT | 0.999 |
| CTTACAATCC | 1.14 |
| TATGTTTGCA | 0.982 |
| CAAAATAGCC | 0.993 |
| CTAACCGTAT | 1.1 |
| GCCGACCGCG | 1.06 |
| CGTGTGTTTC | 0.965 |
| ATTTCTTCTA | 1.02 |
| TACATTGACT | 1.14 |
| TGAAGTGATT | 1 |
| GGTAGCTCTC | 1.06 |
| TCGAGGTCTC | 0.947 |
| CGTTAGGCAT | 0.971 |
| GTAGAATCGT | 0.996 |
| ATAGAGTCTG | 0.997 |
